From PubChem BioAssay AID485281 (National Center for Advancing Translational Sciences (NCATS), 2010)
About 260 (0.074%) of roughly 350,000 compounds were called active. Inconclusive means that the source gave no clear call. Such entries were picked first, then a sample of the others. Calls come from the whole dose curve; as a rule, active = well fitted inhibition curve with a large enough effect; inconclusive = small, poorly fitted or top-dose-only effect; inactive = no such curve, though single readings can be large or run the other way. Where the call is inconclusive, the potency comes from a doubtful curve fit.

biological target: Ferritin light chain (Equus caballus) (UniProt P02791); experiment: qHTS Assay for Identification of Novel General Anesthetics; conditions: apoferritin/1-aminoanthracene competitive binding, fluorescence; activity change, negative = displacement: at 77.5 µM (top of the series); note: nearly all actives have a fitted effect of over 20% in size
Chain of UniProt P02791 (P02791 whole entry, looked up): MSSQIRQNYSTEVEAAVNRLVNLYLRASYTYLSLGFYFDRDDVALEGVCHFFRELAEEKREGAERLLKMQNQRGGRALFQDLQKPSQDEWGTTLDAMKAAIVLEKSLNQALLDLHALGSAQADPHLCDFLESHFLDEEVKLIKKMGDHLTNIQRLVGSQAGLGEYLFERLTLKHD
Method in brief: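 Steps: apoferritin (10 uM) was premixed with half-saturated 1-AMA in PBS, compounds were pin-transferred, plates stood 10 min at room temperature, fluorescence was read at 380/535 nm, and curves were fitted with a Hill equation.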
% is set by controls: 0 for no effect and ±100 for the full control effect; potency is the fitted concentration of half-maximal effect; tags give direction and shape of the fitted curve.

Structure (SMILES) | activity change, negative = displacement | Potency
O=C(C1CCCCC1)N(CCN1CCN(c2ccccc2CO)CC1)c1ccccn1 | inactive: -2.86% | 
Cc1ccc(C(=O)COC(=O)c2cccc(NC(=O)c3ccc(Cl)cc3Cl)c2)cc1 |  | inconclusive: 3.55 µM [inhibitor, full curve]
Cc1ccc(S(=O)(=O)NCCC(=O)Oc2ccc3ccc(=O)oc3c2)cc1 | inactive: 155% | 
CCC(C)(C)NC(=O)CN(C(=O)c1snc(C(N)=O)c1N)c1ccc2c(c1)OCCO2 |  | inconclusive: 39.8 µM [inhibitor, single point]
c1ccc(-c2nn3c(C4CCCCC4)nnc3s2)cc1 | inactive: -14.2% | 
Cc1cc(NC(=O)c2ccc3c(c2)OCCO3)cc(-c2nc3ccccc3o2)c1O | inactive: 16% | 
COC(=O)c1cc(CSc2nnc(NC3CCCCC3)s2)oc1C |  | inconclusive: 25.1 µM [inhibitor, partial curve]
CCNS(=O)(=O)c1ccc2c(c1)n(C)c(=O)n2C | inactive: -1.19% | 
COc1ccc(Cc2nc3c4cnn(-c5ccccc5F)c4ncn3n2)cc1 | inactive: -11.2% | 
COc1ccc(Cl)cc1N(C)C(=O)c1cc2c(=O)oc3ccc(C)cc3c2s1 |  | inconclusive: 10 µM [inhibitor, partial curve]
CC(C)N(C(=O)COC(=O)c1ccc(Cl)c(S(N)(=O)=O)c1)C(C)C | inactive: -14% | 
O=C(Nc1ncnc2sc3c(c12)CCCCC3)c1ccc(F)cc1 |  | inconclusive: 28.2 µM [inhibitor, partial curve]
Nc1ccc(N2CCCCC2)cc1N1CCCCC1 |  | inconclusive: 39.8 µM [inhibitor, partial curve]
Cc1nn(-c2ccccc2)c(C)c1/C=N/NC(=O)c1cc(-c2ccc(Cl)s2)[nH]n1 |  | inconclusive: 5.62 µM [inhibitor, partial curve]
O=S(=O)(Nc1ccc(Cc2ccncc2)cc1)c1ccc(Cl)c(Cl)c1 | inactive: -18.4% | 
CC(=O)c1ccc(NC(=O)c2nc(-c3ccccc3)n(-c3ccccc3)n2)cc1 |  | inconclusive: 56.2 µM [inhibitor, single point]
CC(NC(=S)Nc1cccc(C(F)(F)F)c1)C(C)(C)C (stereo not given) |  | inconclusive: 39.8 µM [inhibitor, partial curve]
O=C1CN(C(=O)COC(=O)CCSc2ccccc2Cl)c2ccccc2N1 |  | inconclusive: 12.6 µM [inhibitor, partial curve]
CCCCn1c(N)c(N(CC)C(=O)c2ccc3c(c2)S(=O)(=O)c2ccccc2C3=O)c(=O)[nH]c1=O |  | inconclusive: 11.2 µM [inhibitor, partial curve]
O=C(NN1C(=O)/C(=C/c2cccc(O)c2)SC1=S)c1ccccc1O |  | inconclusive: 35.5 µM [inhibitor, single point]
Cc1cc(/C=N\NC(=O)COc2cccc3cccnc23)c(C)n1-c1ccccc1 | inactive: -20.7% | 
O=C(Nc1ncc(Cc2cc(Cl)ccc2Cl)s1)c1ccc([N+](=O)[O-])cc1 |  | inconclusive: 28.2 µM [inhibitor, partial curve, poor fit]
COc1ccc(-n2ncc3c(NCCC4=CCCCC4)ncnc32)cc1 | inactive: 6.05% | 
CN(Cc1ccon1)C(=O)c1ccc2nc(Cc3cccc(Cl)c3)oc2c1 |  | inconclusive: 35.5 µM [inhibitor, single point]

Structure (SMILES) | activity change, negative = displacement | Potency
O=C(NCCc1ccccc1)C(=O)NCC1OCCN1S(=O)(=O)c1ccc(F)cc1 (stereo not given) |  | inconclusive: 28.2 µM [inhibitor, single point]
CC(=O)c1ccc(N=Cc2c(O)n(-c3cc(Cl)ccc3N3CCOCC3)c(=O)c3ccccc23)cc1 | inactive: -8.88% | 
CC(C)c1ccc(C(=O)NCCCc2ccccc2)cc1 |  | inconclusive: 14.1 µM [inhibitor, partial curve]
CCOc1ccccc1NC(=O)NCCn1c(=O)oc2ccc(C)cc21 |  | inconclusive: 35.5 µM [inhibitor, partial curve]
O=C(Nc1cccc(OC(F)(F)F)c1)c1ccc(Br)o1 |  | inconclusive: 35.5 µM [inhibitor, partial curve]
CCC(c1nnnn1C(C)(C)CC)N(CCCN1CCOCC1)Cc1cc2cccc(C)c2[nH]c1=O (stereo not given) | inactive: 25.3% | 
COc1cccc(COc2ccccc2C2Nc3ccc(Br)cc3C(=O)N2NC(=O)c2ccncc2)c1 (stereo not given) |  | inconclusive: 10 µM [inhibitor, partial curve]
CCC(C)C(NC(N)=O)C(=O)Nc1ccc(C)c(Cl)c1 (stereo not given) | inactive: 0.427% | 
Cc1cc(C)c(S(=O)(=O)/N=C2/C=C(Sc3ncn[nH]3)C(=O)c3ccccc32)cc1C | inactive: -15.5% | 
CC1=CC(C)(C)Nc2ccc(OC(=O)c3ccco3)cc21 |  | inconclusive: 39.8 µM [inhibitor, single point]
CCc1nnc(NC(=O)c2cc(C)nc3ccccc23)s1 | inactive: -7.67% | 
O=C(CSC1=NNC(c2ccccn2)S1)Nc1ccccc1 (stereo not given) | inactive: -12.4% | 
CC(=O)Nc1ccc(S(=O)(=O)N2CC3(C)CC2CC(C)(C)C3)cc1 (stereo not given) | inactive: -16.6% | 
COc1ccc(S(=O)(=O)n2nc(OC(=O)C3CCCCC3)cc2N)cc1 |  | inconclusive: 12.6 µM [inhibitor, full curve]
COc1ccccc1C(=O)NCCC(=O)Nc1ccc(OC(F)(F)F)cc1 | inactive: -14.2% | 
COc1ccc(CN2CCN(Cc3ccc(C)cc3)C(CCO)C2)cc1OC (stereo not given) | inactive: -5.45% | 
Fc1ccc(CNc2ccc(CNc3ncn[nH]3)cc2)cc1 |  | inconclusive: 44.7 µM [inhibitor, single point]
CC(NC(=O)Nc1cc(Cl)ccc1Cl)c1c(-n2cccc2)sc2c1CCCC2 (stereo not given) | inactive: 2.79% | 
O=C(O)C1CCCCC1C(=O)Nc1cc(Cl)ccc1Cl (stereo not given) |  | inconclusive: 31.6 µM [inhibitor, partial curve]
O=C(CSc1nc2ccc([N+](=O)[O-])cc2[nH]1)NC1CCCCCC1 |  | inconclusive: 35.5 µM [inhibitor, partial curve]
Cc1cccc(N2CC(C)Cn3c2nc2c3c(=O)n(CC(=O)OCc3ccccc3)c(=O)n2C)c1 (stereo not given) |  | inconclusive: 3.55 µM [inhibitor, partial curve]
O=C(c1ccco1)N1CCN(c2nc(-c3ccc(F)cc3)cs2)CC1 |  | inconclusive: 31.6 µM [inhibitor, single point]
O=c1c2ccccc2nnn1Cc1ccc2ccccc2c1 |  | inconclusive: 28.2 µM [inhibitor, partial curve]
C=CCSc1nncn1/N=C/c1ccc(OC)cc1 |  | inconclusive: 35.5 µM [inhibitor, partial curve]

Structure (SMILES) | activity change, negative = displacement | Potency
COc1ccccc1/C=N/NC(=O)c1ccc(N(C)S(=O)(=O)c2ccccc2)cc1 |  | inconclusive: 3.55 µM [inhibitor, partial curve]
O=C(NCc1ccc(F)cc1F)c1cc(COc2c(F)cccc2F)on1 |  | inconclusive: 3.55 µM [inhibitor, full curve, poor fit]
COc1ccc([N+](=O)[O-])cc1C(=O)Nc1ccc(Cc2ccncc2)cc1 |  | inconclusive: 31.6 µM [inhibitor, partial curve]
N#Cc1ccc(CSc2ccccn2)c(Cl)c1 |  | inconclusive: 15.8 µM [inhibitor, partial curve]
Cn1c(N=Nc2ccccc2)nc2ccccc21 |  | inconclusive: 14.1 µM [inhibitor, partial curve]
Cc1ccc(-n2c(Cc3cccn3C)nnc2SCC(=O)NCc2ccco2)cc1 |  | inconclusive: 25.1 µM [inhibitor, single point]
O=C(NCc1cccc(Cl)c1)C(=O)Nc1ccc2nc3n(c(=O)c2c1)CCCCC3 |  | inconclusive: 7.94 µM [inhibitor, full curve]
O=C1C=CCC(/C=C/c2ccccc2)O1 (stereo not given) | inactive: -10% | 
CC(C)(C)c1ccc(C(=O)N2CCC(C(=O)c3ccccc3)CC2)cc1 |  | inconclusive: 15.8 µM [inhibitor, partial curve]
CCc1ccc(-c2nc(CS(=O)CC(=O)NCCN3CCCCCC3)c(C)o2)cc1 (stereo not given) |  | inconclusive: 31.6 µM [inhibitor, single point]
Nc1cccc2c3c(oc12)CCCC3 |  | inconclusive: 39.8 µM [inhibitor, single point]
Fc1cccc(NC(=S)NC2CCCCCCC2)c1 |  | inconclusive: 28.2 µM [inhibitor, partial curve]
Cc1ccc(C(=O)COC(=O)CCN2C(=O)C3C4CCC(C4)C3C2=O)cc1C (stereo not given) |  | inconclusive: 11.2 µM [inhibitor, partial curve]
Cc1csc(NC(=O)CSc2ccc(-c3ccccc3)nn2)n1 |  | inconclusive: 20 µM [inhibitor, partial curve]
Cc1ccc(NC(=O)COC(=O)Cn2c(C)csc2=O)cc1 |  | inconclusive: 31.6 µM [inhibitor, single point]
CCOC(=O)c1c(N2C(=O)C3C4C=CC(C4)C3C2=O)sc2c1CCC(C)C2 (stereo not given) |  | inconclusive: 56.2 µM [inhibitor, single point]
O=C(Oc1ccc(C(=S)N2CCCCC2)cc1)c1ccccc1 |  | inconclusive: 35.5 µM [inhibitor, partial curve]
O=C(CCC(=O)OCC(=O)c1ccc(Cl)cc1Cl)Nc1cccc2cccnc12 |  | inconclusive: 31.6 µM [inhibitor, partial curve]
CC(=O)c1c(C)[nH]c(C(=O)OCc2c(F)cccc2Cl)c1C | inactive: -2.97% | 
C=CCN(CC=C)C(=S)Nc1ccccc1 |  | inconclusive: 28.2 µM [inhibitor, partial curve]
O=C(/C=C/Sc1ccccc1)c1ccccc1 |  | inconclusive: 35.5 µM [inhibitor, partial curve]
O=C(NCCc1csc(-c2cccc(F)c2)n1)c1cccs1 |  | inconclusive: 4.47 µM [inhibitor, single point]
